The campaign covered roughly 310,000 compounds. About 14,000 (4.5%) showed an effect of 50% or more. Effects have a minus sign here. The list shows a part of the results.
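Note: peak tail current of the secondary pulse compared with the same well before compound.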

human ether-à-go-go-related gene (hERG) potassium channel, sequence (Q12809 whole entry, looked up): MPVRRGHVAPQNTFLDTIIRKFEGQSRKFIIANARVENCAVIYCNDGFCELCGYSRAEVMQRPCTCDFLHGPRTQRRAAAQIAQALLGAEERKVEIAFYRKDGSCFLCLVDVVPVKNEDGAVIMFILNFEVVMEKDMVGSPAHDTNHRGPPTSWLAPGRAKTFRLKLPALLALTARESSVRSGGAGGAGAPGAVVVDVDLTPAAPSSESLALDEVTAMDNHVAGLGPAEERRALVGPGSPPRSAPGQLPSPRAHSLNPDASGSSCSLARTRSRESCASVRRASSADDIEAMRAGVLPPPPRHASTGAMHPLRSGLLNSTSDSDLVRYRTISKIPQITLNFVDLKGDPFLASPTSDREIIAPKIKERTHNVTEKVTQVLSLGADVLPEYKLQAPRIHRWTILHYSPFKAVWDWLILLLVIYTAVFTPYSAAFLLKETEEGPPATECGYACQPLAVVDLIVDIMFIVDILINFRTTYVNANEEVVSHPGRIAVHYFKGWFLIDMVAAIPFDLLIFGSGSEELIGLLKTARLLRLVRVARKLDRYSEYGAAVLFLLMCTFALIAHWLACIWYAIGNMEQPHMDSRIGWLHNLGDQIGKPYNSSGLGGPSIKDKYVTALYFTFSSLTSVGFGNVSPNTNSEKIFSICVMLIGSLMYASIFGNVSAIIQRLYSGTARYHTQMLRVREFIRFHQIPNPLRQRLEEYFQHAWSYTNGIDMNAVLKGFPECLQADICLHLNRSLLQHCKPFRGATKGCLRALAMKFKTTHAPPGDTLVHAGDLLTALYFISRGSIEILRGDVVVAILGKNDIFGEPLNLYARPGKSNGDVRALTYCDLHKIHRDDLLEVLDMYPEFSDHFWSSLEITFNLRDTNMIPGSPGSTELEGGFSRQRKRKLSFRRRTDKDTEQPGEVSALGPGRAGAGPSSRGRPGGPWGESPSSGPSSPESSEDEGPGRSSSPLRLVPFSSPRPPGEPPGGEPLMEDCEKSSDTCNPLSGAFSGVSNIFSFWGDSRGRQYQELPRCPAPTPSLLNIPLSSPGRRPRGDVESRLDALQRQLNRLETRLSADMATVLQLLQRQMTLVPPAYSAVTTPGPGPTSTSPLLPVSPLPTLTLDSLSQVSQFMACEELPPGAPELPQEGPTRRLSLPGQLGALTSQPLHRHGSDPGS

The test has as its target human ether-à-go-go-related gene (hERG) potassium channel (human, UniProt Q12809). The experiment in a line: primary screen, population patch clamp on CHO cells stably expressing hERG.
Consider `CCOC(=O)C1CN(S(=O)(=O)c2ccc(OC)cc2)c2ccccc2O1` (centres unmarked), for which the “hERG current change (%, negative = inhibition) at 10uM” value is on record as 10.2%.
The value for `Cc1cccc(-c2noc(CN(C)C(=O)COc3ccccc3)n2)c1` was -43.4%; that for `Clc1ccc(OCCCn2cncn2)cc1Cl` was -12.2%; that for `COc1ccc(S(=O)(=O)N2C(=O)/C(=C3\SC(N)=NC3=O)c3ccccc32)cc1` was 4.47%.
`Cc1sc2ncnc(SCC(=O)Nc3ccc(CN4CCCC4)cc3)c2c1C`: the “hERG current change (%, negative = inhibition) at 10uM” value is listed as -72.6%.
The value for `CC1(C)CC(NC(=O)c2ccc(Cl)cc2)CC(C)(C)N1` was -1.6%; that for `Cc1ccc(C(=O)C[n+]2cc(-c3ccccc3)n3c2CCCCC3)cc1.[Br-]` was -11.3%; that for `Cn1nc(C(F)(F)F)c(C#N)c1N1CCN(c2ccc(F)cc2)CC1` was -21.6%.
The value for `CCOc1cc(CNC(C)C(O)c2ccccc2)cc(Cl)c1OCC.Cl` (centres unmarked) was 20.2%; that for `CCn1c(=O)c2cc(C(=O)NCCN(C)C)sc2c2ccccc21` was 10.8%; that for `O=C(Cn1ccc2ccccc2c1=O)NCCC(=O)Nc1ccc(F)cc1F` was 1.82%.
To `Cc1cc(C)c(C2=NOC(O)(C(F)(F)F)C2)c(=O)[nH]1` (centres unmarked) belongs 4.8%.
Consider `O=[N+]([O-])c1cccc(C2=NC(c3ccccc3)CO2)c1` (centres unmarked), for which the “hERG current change (%, negative = inhibition) at 10uM” value is -5.85%.
As to `COc1ccc(Nc2cc(C)nc3ncnn23)c(OC)c1`, the “hERG current change (%, negative = inhibition) at 10uM” value is listed as 12.9%.
The value for `Cc1sc2nc(CSc3nc4ccccc4s3)[nH]c(=O)c2c1C` was -4.54%; that for `Cc1onc(-c2ccccc2Cl)c1C(=O)Nc1cccc(S(=O)(=O)NC2=NCCC2)c1` was -18.6%.
As to `Cc1cccc(C)c1NC(=O)CN(C)C(=O)CN1C(=O)NC2(CCCC2)C1=O`, the “hERG current change (%, negative = inhibition) at 10uM” value is -8.96%.
To `O=C1CNC(=O)/C1=C/c1ccccc1` belongs 23.5%; to `O=C(CSc1nncc2ccccc12)N1CCOCC1`, 2.33%; to `Cc1cc(=O)[nH]c(N/N=C/c2cccc([N+](=O)[O-])c2)n1`, -1.63%.
For the compound `COc1ccc(CNc2ncnc3sccc23)cc1`, the “hERG current change (%, negative = inhibition) at 10uM” value is recorded as -2.78%.
In the case of `CCN1C(=O)[C@H]2[C@@H](c3ccc(-c4cccc(Cl)c4)c(OC)c3)N[C@@](Cc3ccccc3)(C(=O)OC)[C@H]2C1=O.O=C(O)C(F)(F)F`, the “hERG current change (%, negative = inhibition) at 10uM” value is 11.8%.
To `COc1ccc(C(CNC(=O)C(CCSC)NC(=O)c2ccccc2Cl)N2CCCCC2)cc1` (centres unmarked) belongs -25.5%.
To `CN1CCN(c2oc(-c3ccc([N+](=O)[O-])cc3)nc2C#N)CC1` belongs -66.1%; to `Cc1nonc1OCCn1c([N+](=O)[O-])cnc1C`, 4.77%.
`CCN1C(=O)N(C(C)=O)C2C1N(C(C)=O)C(=O)N2C(C)=O` (centres unmarked): the “hERG current change (%, negative = inhibition) at 10uM” value is reported as 22%.
The value for `N#CC1=C(N)Oc2c(sc3ccccc23)C1c1ccco1` (centres unmarked) was -4.2%; that for `CC(C)n1nnc2c(=O)oc3ccccc3c21` was 11.2%.
With `COc1ccc(OC)c(-c2csc(N(CC3CCCO3)C(=O)C3CCCCC3)n2)c1` (centres unmarked), the “hERG current change (%, negative = inhibition) at 10uM” value is 11.6%.
The value for `Cc1cc(C(=O)COC(=O)C(C)NC(N)=O)c(C)n1Cc1ccco1` (centres unmarked) was 10.5%; that for `CCOC(=O)CSc1n[nH]c(NC(=O)CC)n1` was 14.4%; that for `COc1ccc(NS(=O)(=O)c2ccc(S(=O)(=O)N(C)C)cc2)cc1S(N)(=O)=O` was 13.7%.
The value for `Cc1ccc(S(=O)(=O)N2CCN(Cc3cccnc3)CC2)cc1` was -2.34%; that for `C/C(=N/NC(=O)c1ccccn1)c1c[nH]c2ccccc12` was 3.88%; that for `Cc1ccccc1NC(=O)CSc1nc2ncc(Cl)cc2[nH]1` was 18.6%.
Turning to `Cc1ccc(-c2csc(NC(=O)COc3ccc(N(C)S(=O)(=O)c4ccc(C)cc4)cc3)n2)cc1`, the “hERG current change (%, negative = inhibition) at 10uM” value turned out to be 12.8%.
To `Nc1c(C(=O)c2ccccc2)sc(Nc2ccccc2)c1S(=O)(=O)c1ccccc1` belongs -5.59%; to `Cc1cccc(-c2cnn(-c3cccc([N+](=O)[O-])c3)c2N)c1`, -14.6%.
To `Cc1cc(NC(=O)CSc2nnc(C3COc4ccccc4O3)o2)no1` (centres unmarked) belongs 8.03%; to `Cc1ccc2c(CC(=O)NCC3COc4ccccc4O3)coc2c1` (centres unmarked), -7.79%; to `CCCn1c2ccccc2c2nnc(SCC(=O)OC)nc21`, -9.64%.
To `Cc1ccc(C)c(N2CCN(C(=O)C3CCN(S(=O)(=O)c4c(C)noc4C)CC3)CC2)c1` belongs -0.446%; to `Cc1ccc(C(c2sc3nc(C)nn3c2O)N2CCN(c3ccccc3)CC2)cc1` (centres unmarked), -5.32%.
For the compound `COc1ccc(C(O)c2nccc3cc(OC)c(OC)cc23)cc1OC` (centres unmarked), the “hERG current change (%, negative = inhibition) at 10uM” value was -2.43%.
To `O=C(O)c1ccccc1CSc1ncccc1C(=O)O` belongs 17.9%; to `CCC(C)NC(=O)CSc1nc2c(sc3ccccc32)c(=O)n1CCCN1CCOCC1` (centres unmarked), -53.4%; to `O=S1(=O)C[C@@H](O)[C@@H](Nc2ccccc2)C1`, 13.8%.
In the case of `O=C(CSc1nnc2scc(-c3ccc(Cl)cc3)n12)NCc1ccco1`, the “hERG current change (%, negative = inhibition) at 10uM” value is -15.9%.
The value for `Cc1cc(C)cc(OCC(=O)Nc2nc(-c3cccnc3)cs2)c1` was 4.69%; that for `Cc1cc(Cl)ccc1OCc1nc(-c2ccc(O)cc2)n[nH]1` was -13.7%; that for `O=C(c1cc2cc(Cl)ccc2[nH]1)N1CCN(c2ccccn2)CC1` was 4.56%.
The value for `CCOc1ncccc1C(=O)Nc1ccc(S(=O)(=O)N2CCCC2)cc1` was 22.9%; that for `Cc1ccccc1CC1(CO)CCCN(C(=O)c2cc(-c3ccccc3)no2)C1` (centres unmarked) was 2.91%; that for `CC(NC(=O)CSc1ncccc1C(=O)O)C1CC2CCC1C2` (centres unmarked) was 2.17%.
To `NC1=NC(=O)C(Cc2ccc(OC(F)(F)F)cc2)S1` (centres unmarked) belongs 0.102%.
As for `O=C(Nc1ccccc1N1CCN(C(=O)c2ccccc2)CC1)c1cccc(Cl)c1`, the “hERG current change (%, negative = inhibition) at 10uM” value is -67.8%.
To `COc1ccc(-c2noc(CN(C)C(=O)c3ccc4c(c3)OCO4)n2)cc1OC` belongs -4.61%; to `Cn1c(SCC(=O)c2ccccc2)nnc1-c1ccco1`, -39.5%; to `COC(=O)CSc1c(-c2ccccc2)c2cc(Cl)ccc2[nH]c1=O`, 9.65%.
To `Fc1ccccc1CNc1nc(-c2cccnc2)nc2ccccc12` belongs 17.8%; to `CCOC(=O)C1=C(CC)Nc2ccccc2N/C1=N\S(=O)(=O)c1ccc(C(=O)OCC)cc1`, 8.68%; to `COc1ccccc1NC(=O)NCC1CC1(Cl)Cl` (centres unmarked), 7.22%.
The value for `CC(NC(=O)COc1ccccc1)C(c1cccs1)N1CCCC1` (centres unmarked) was -2.64%.
`C[C@H](NC(=O)c1nc[nH]c1C(=O)NC(c1ccccc1)c1ccccc1)C(=O)OCc1ccccc1`: the “hERG current change (%, negative = inhibition) at 10uM” value worked out at 19.3%.
The value for `O=C(c1cccc(F)c1)N1CCN(c2ccc([N+](=O)[O-])c(N3CCCCC3)c2)CC1` was -6.87%; that for `COCCN1C(=O)c2cc(C(=O)Nc3ccc(OC)c(OC)c3)ccc2C1Nc1ccc(OC)c(OC)c1` (centres unmarked) was 5.08%; that for `CCOC(=O)c1c(NC(=O)CN2C(=O)NC3(CCCCC3)C2=O)sc(C)c1-c1ccc(C)cc1` was 5.69%.
As for `CS(=O)(=O)c1nc(S(=O)(=O)c2ccc(Cl)cc2)c(N2CCCCC2)s1`, the “hERG current change (%, negative = inhibition) at 10uM” value was determined as 16.4%.
To `CCOC(=O)c1ccc(NC(=S)N2CCN(CCN=CC3=C(O)CC(C)(C)CC3=O)CC2)cc1` belongs -40.8%; to `Cn1c(SCc2cccc(C(F)(F)F)c2)nnc1-c1ccco1`, -14.1%; to `CNc1nc(Oc2ccc(C(=O)OC)cc2)nc(SC)n1`, 5.47%.
The value for `CCOC(=O)C(C(=O)OCC)C1CS(=O)(=O)CC1C(C(=O)OCC)C(=O)OCC` (centres unmarked) was 7.53%.
The value for `CCCCc1nc(NCCNC(=O)c2ccccc2)c(C#N)c2c1CSC(C)(C)C2` was -19.8%; that for `O=c1[nH]cnc2c1c(-c1ccccc1)cn2-c1ccccc1` was 12.1%; that for `O=C(CN1CCCC1)Nc1nc(-c2ccc3c(c2)CCN3C(=O)c2ccccc2F)cs1` was 3.76%.
As to `Cc1ccc(-n2c(SCC(=O)NCCN3C(=O)CSC3=O)nnc2-c2ccccc2)cc1C`, the “hERG current change (%, negative = inhibition) at 10uM” value was 1.18%.
The value for `COCC1CCCN(C(=O)c2cc(COc3ccc(C(C)=O)cc3)on2)C1` (centres unmarked) was 12.7%; that for `Cc1cc(C)n(-c2ccc(Cl)c(C(=O)O)n2)n1` was -19.5%; that for `CC(=O)Nc1ccc(NC(=O)C(C)OC(=O)/C=C/c2ccc3c(c2)OCO3)cc1` (centres unmarked) was -24.3%.
The value for `O=C(COC(=O)C1CC1)Nc1ncc(Cl)cc1Cl` was 8.23%.
The value for `C/C(O)=C(\N=Nc1cc(C)ccc1O)C(N)=O` was -3.44%.
For `N#C/C(=C\c1ccc[nH]1)C(=O)Nc1ccccc1F`, the “hERG current change (%, negative = inhibition) at 10uM” value is -3.7%.
To `CC(NC(=O)c1ccc(OC2CCN(C(=O)c3cccnc3)CC2)cc1)C1CC1` (centres unmarked) belongs 3.32%.
Consider `COC(=O)C1=C(c2ccc(S(C)(=O)=O)cc2)C[C@@H]2CC[C@H]1N2C(=O)NCCNC(C)=O`, for which the “hERG current change (%, negative = inhibition) at 10uM” value is 14.6%.
The value for `Cc1ccc(-n2ncc(C(=O)Nc3ccc(Cl)cc3)c2C2CCNCC2)cc1C.Cl` was -71.7%; that for `COc1ccc(-c2nnnn2CCc2ccccc2)cc1` was -23.3%.

Values taken from paper PMC4336329 (PLoS ONE, 2015).
